Among the data in PubChem BioAssay (NCATS) are IC50, AC50 and z-score values, retold here.

Experiment [1] concerns the target Catechol O-methyltransferase (Homo sapiens) (UniProt P21964). Briefly: Confirmatory Screen for Target Class Profiling of Small Molecule Inhibitors of Methyltransferases (AID 1745852).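 Also: inhibitor potency for blocking SAH production.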 The note with it: MTase-Glo luminescence, SAH detection, recombinant enzyme; measured here: COMT inhibition potency.
In experiment [2] the target is Histamine N-methyltransferase (Homo sapiens) (UniProt P50135). The description is as above. The note with it: MTase-Glo luminescence, SAH detection, recombinant enzyme; measured here: HNMT inhibition potency.
Chain of UniProt P50135 (P50135 whole entry, looked up): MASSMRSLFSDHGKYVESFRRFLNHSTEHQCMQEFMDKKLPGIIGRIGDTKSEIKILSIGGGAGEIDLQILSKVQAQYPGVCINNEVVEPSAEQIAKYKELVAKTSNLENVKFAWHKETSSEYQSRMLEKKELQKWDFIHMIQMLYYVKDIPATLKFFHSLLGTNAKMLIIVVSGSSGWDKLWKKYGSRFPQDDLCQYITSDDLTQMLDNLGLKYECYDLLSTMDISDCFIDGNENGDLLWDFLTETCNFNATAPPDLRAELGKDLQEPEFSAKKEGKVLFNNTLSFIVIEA
The target of experiment [3] is Nicotinamide N-methyltransferase (Homo sapiens) (UniProt P40261). The experiment is described as above. The note with it: MTase-Glo luminescence, SAH detection, recombinant enzyme; measured here: NNMT inhibition potency.
Chain of UniProt P40261 (P40261 whole entry, looked up): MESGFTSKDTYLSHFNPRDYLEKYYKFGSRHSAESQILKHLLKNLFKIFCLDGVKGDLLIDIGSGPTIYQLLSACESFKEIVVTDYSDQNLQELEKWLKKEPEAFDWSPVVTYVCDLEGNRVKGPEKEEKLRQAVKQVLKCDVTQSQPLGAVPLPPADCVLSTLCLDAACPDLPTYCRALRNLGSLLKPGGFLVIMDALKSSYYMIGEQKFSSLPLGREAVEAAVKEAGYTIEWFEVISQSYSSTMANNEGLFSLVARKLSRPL
The target in experiment [4] is Phenylethanolamine N-methyltransferase (Homo sapiens) (UniProt P11086). Described as above. Particulars: MTase-Glo luminescence, SAH detection, recombinant enzyme; measured here: PNMT inhibition potency.
Chain of UniProt P11086 (P11086 whole entry, looked up): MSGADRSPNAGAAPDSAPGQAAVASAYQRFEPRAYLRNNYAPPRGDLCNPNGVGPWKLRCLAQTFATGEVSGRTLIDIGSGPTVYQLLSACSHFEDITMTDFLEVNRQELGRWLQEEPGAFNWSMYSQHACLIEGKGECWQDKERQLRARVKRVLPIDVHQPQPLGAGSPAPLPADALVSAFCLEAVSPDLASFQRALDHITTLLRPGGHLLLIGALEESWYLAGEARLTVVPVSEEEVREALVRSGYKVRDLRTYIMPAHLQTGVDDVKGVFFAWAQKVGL
A short description of experiment [5]: NCATS anti-infectives library activity on the primary C. elegans qHTS viability assay (AID 1745855). Particulars: C. elegans worm area imaging, day 7, measured here: worm number. In short, it runs like this:
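GFP read-out by 488 nm laser cytometry at day 0, 3 and 7, gated on object perimeter, area and peak intensity, scored viability of PE254-GFP-FLuc worms exposed to compound in S medium with bacterial capsules at 21 °C.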

Experiment [6] can be described thus: qHTS drug screen for cell cycle checkpoint inhibitors in PARPi-resistant BRCA-mutant ovarian cancer cell lines. (AID 1963452). Particulars: PEO1/OlaR viability, CellTiter-Glo luminescence, 96 h. Summed up:
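PEO1, PEO4 and PEO1/OlaR ovarian cancer cells, 600 per well, exposed 96 h at 37C to a dilution series. Viability read by CellTiter-Glo luminescence, normalized to DMSO and empty wells; activity summarized as Z-AUC.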
Background: Quantitative high-throughput screening tests each substance at several concentrations.

Experiment [7] in a line: qHTS for identification of novel therapeutic agents for treatment of microphthalmiaassociated transcription factor (MiT) renal cell carcinoma (RCC) (AID 1963991). The note with it: CellTiter-Glo, 48 h; for z-score: stronger effect = lower value. In short, it runs like this:
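Three TFE3-fusion RCC lines (UOK109, UOK124, UOK145), 500 cells/well in complete medium, were treated with MIPE 4.0 compounds for 48 hours at 37 C. Viability was by CellTiter-Glo luminescence, normalized to DMSO (100%) and empty wells (0%); curves fitted over 11 concentrations.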

A short description of experiment [8]: qHTS Validation Assay to Find Inhibitors of Chronic Active B-Cell Receptor Signaling (AID 485345). Particulars: ABC-DLBCL cells, chronic BCR signaling reporter. Summed up: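 TMD8 ABC-DLBCL cells with dox-inducible green luciferase–IκBα fusion and red native luciferase; compounds 46 uM–3 nM, 4 h at 37C with doxycycline in 0.5% FBS IMDM. Green/red ratio normalized to basal and 10 uM MG-132.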

Setting [9] is: measured here: PEO1 parental viability.
Setting [10] is: TFE3-RCC UOK109 viability, measured here: UOK109 Z-AUC.
Setting [11] is: TFE3-RCC viability, measured here: UOK124 Z-AUC.
Setting [12] is: TFE3-RCC viability, measured here: UOK124 cell viability.
Where [13] appears, read: TFE3-RCC viability, measured here: UOK145 Z-AUC.
[14] abbreviates: TFE3-RCC viability, measured here: UOK145 cell viability.

The other results are listed elsewhere or left out. These are further read-outs of the screen, such as a control signal, another cell line or another target. No call is given for them. For some assays here: Compounds called inactive in the main read-out are mostly missing here. Potencies come from curve fits of mixed quality, noted in brackets.
Tags tell the direction and shape of the fitted curve.

Chain of UniProt P21964 (P21964 whole entry, looked up): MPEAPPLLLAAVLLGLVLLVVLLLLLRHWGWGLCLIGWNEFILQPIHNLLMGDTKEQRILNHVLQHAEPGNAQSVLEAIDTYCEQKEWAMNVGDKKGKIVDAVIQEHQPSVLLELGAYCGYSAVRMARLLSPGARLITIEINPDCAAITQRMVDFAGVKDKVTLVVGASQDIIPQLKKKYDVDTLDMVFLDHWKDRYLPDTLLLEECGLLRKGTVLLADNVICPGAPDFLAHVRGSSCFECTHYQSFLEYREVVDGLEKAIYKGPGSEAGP

As a reminder, the IC50 is the concentration that gives 50% inhibition. On to `CC[C@H](C)NC(=O)c1sc(=S)n2c1[nH]c(=O)c1cc(Cl)ccc12`, for which the IC50 in experiment [1] is 24.1 µM [falling, partial curve]; in experiment [2] it was 19.2 µM [falling, partial curve]; in experiment [3], 21.5 µM [falling, partial curve]; in experiment [4], 24.1 µM [falling, partial curve].
Regarding `C[C@@H](Oc1cc(-n2cnc3ccc(OC4CCN(C)CC4)cc32)sc1C(N)=O)c1ccccc1C(F)(F)F`, the IC50 in experiment [1] was 21.5 µM [falling, partial curve]; in experiment [2] it was 9.61 µM [falling, partial curve]; in experiment [3] it was 24.1 µM [falling, partial curve]; in experiment [4] it was 21.5 µM [falling, partial curve].
`Cc1c(OCc2ccc(C(=O)O)o2)ccc2c(-c3ccccc3)cc(=O)oc12`: the IC50 is 27.1 µM [falling, partial curve] in experiment [1]; 34.1 µM [falling, single point] in experiment [2]; 24.1 µM [falling, partial curve] in experiment [3]; 24.1 µM [falling, partial curve] in experiment [4].
For `O=C(CCc1ccccc1)N1CCNc2cnc(Nc3cccnc3)nc2C1`, the IC50 in experiment [1] is 39.3 µM [falling, partial curve, poor fit]; in experiment [2], 39.3 µM [falling, single point]; in experiment [3], 35 µM [falling, partial curve]; in experiment [4], 35 µM [falling, partial curve].
For the compound `COc1cc2nc(N3CCC(N4CCCCC4)CC3)nc(NC3CCCCCC3)c2cc1OC`, the IC50 in experiment [1] is 27.1 µM [falling, partial curve]; in experiment [2], 13.6 µM [falling, partial curve]; in experiment [3] it was 24.1 µM [falling, partial curve]; in experiment [4], 27.1 µM [falling, single point].
The AC50 is the concentration at which the activity in the assay is half-maximal. `CCOc1cc2ncc(C#N)c(Nc3ccc(F)c(Cl)c3)c2cc1NC(=O)/C=C/CN(C)C`: the IC50 in experiment [1] was 3.83 µM [falling, full curve]; in experiment [2], 3.41 µM [falling, full curve]; in experiment [3] it was 5.41 µM [falling, full curve]; in experiment [4] it was 4.29 µM [falling, full curve]. The AC50 in experiment [5] was 4.09 µM [falling, partial curve, poor fit]; in experiment [6] (setting [9]) it was 3.89 µM [falling, full curve]; in experiment [6] (measured here: PEO4 viability), 2.45 µM [falling, full curve].
Turning to `N#Cc1cccc(-c2c[nH]c3ncnc(N4CCOCC4)c23)c1`, the IC50 in experiment [1] was 21.5 µM [falling, partial curve]; in experiment [2] it was 19.2 µM [falling, partial curve]; in experiment [3], 24.1 µM [falling, partial curve]; in experiment [4], 21.5 µM [falling, partial curve].
Consider `CCOC(=O)c1cnc2ccc(-c3cncc(NS(=O)(=O)c4ccccc4)c3)cn12`, for which the IC50 in experiment [1] is 27.1 µM [falling, single point]; in experiment [2], 38.3 µM [falling, single point]; in experiment [3] it was 42.9 µM [falling, partial curve, poor fit]; in experiment [4], 27.1 µM [falling, single point].
For the compound `O=C(NCCc1ccc(Cl)cc1)c1ccc2c(=O)[nH]c3c(C(=O)NCC4CCCO4)sc(=S)n3c2c1` (centres undefined), the IC50 is 24.1 µM [falling, single point] in experiment [1]; 24.1 µM [falling, single point] in experiment [2]; 24.1 µM [falling, partial curve] in experiment [3]; 24.1 µM [falling, partial curve] in experiment [4].
As for `C[C@@H](Oc1cc(-n2cnc3ccc(OC4CCN(C)CC4)cc32)sc1C(N)=O)c1ccccc1Cl`, the IC50 is 6.07 µM [falling, full curve] in experiment [1]; 3.04 µM [falling, full curve] in experiment [2]; 9.61 µM [falling, full curve] in experiment [3]; 6.81 µM [falling, full curve] in experiment [4].
For `COc1cc2ncnc(Nc3cccc(I)c3)c2cc1OC`, the half-inhibitory concentration (IC50) in experiment [1] was 24.1 µM [falling, partial curve]; in experiment [2], 24.1 µM [falling, partial curve]; in experiment [3], 24.1 µM [falling, partial curve]; in experiment [4], 24.1 µM [falling, partial curve].
On to `COc1ccc2nc3n[nH]c(C)c3c(NCCOCCO)c2c1`, for which the IC50 was 21.5 µM [falling, partial curve] in experiment [1]; 21.5 µM [falling, partial curve] in experiment [2]; 27.1 µM [falling, single point] in experiment [3]; 24.1 µM [falling, partial curve] in experiment [4]. Besides, in experiment [6] (measured here: PEO4 viability), the AC50 was 27.5 µM [falling, single point].
Turning to `Cc1cc(C)cc(-c2cnc3cc(Cl)c(-c4cccc(O)c4)cc3c2OCCCN)c1`, the IC50 is 24.1 µM [falling, partial curve] in experiment [1]; 21.5 µM [falling, partial curve] in experiment [2]; 3.04 µM [falling, full curve] in experiment [3]; 24.1 µM [falling, partial curve] in experiment [4].
With `CC1(COc2ccc3c(c2)ncn3-c2ccc3cccc(N4CCC(N)CC4)c3n2)COC1`, the IC50 in experiment [1] was 21.5 µM [falling, partial curve]; in experiment [2] it was 15.2 µM [falling, partial curve]; in experiment [3], 27.1 µM [falling, partial curve, poor fit]; in experiment [4] it was 24.1 µM [falling, partial curve]. For the same compound, the AC50 was 13.8 µM [falling, partial curve] in experiment [6] (setting [9]); 12.3 µM [falling, partial curve] in experiment [6] (measured here: PEO4 viability); 16.6 µM [falling, partial curve] in experiment [7] (setting [12]); 0.469 µM [falling, partial curve] in experiment [7] (setting [14]). Further, the z-score in experiment [7] (setting [10]) is -2.6; in experiment [7] (setting [11]) it was -0.544; in experiment [7] (setting [13]) it was -3.76.
For the compound `COc1cc(OC)c(/C=C2/C(=O)Nc3ccccc32)c(OC)c1`, the AC50 was 16.4 µM [falling, partial curve] in experiment [8] (measured here: CBG/CBR ratio read-out) and 2.06 µM [rising, partial curve] in experiment [8] (measured here: CBR control luciferase (viability counter)). The IC50 in experiment [1] is 43.2 µM [falling, partial curve, poor fit]; in experiment [2] it was 27.3 µM [falling, partial curve, poor fit]; in experiment [3], 27.3 µM [falling, partial curve, poor fit]; in experiment [4] it was 27.3 µM [falling, single point].
On to `CN1CCC(CNc2ccc3ncc(-c4cccc(OC(F)(F)F)c4)n3n2)CC1`, for which the IC50 in experiment [1] is 24.1 µM [falling, partial curve]; in experiment [2] it was 19.2 µM [falling, partial curve]; in experiment [3] it was 24.1 µM [falling, partial curve]; in experiment [4] it was 21.5 µM [falling, partial curve]. Further, the AC50 is 12.3 µM [falling, partial curve] in experiment [6] (setting [9]); 12.3 µM [falling, partial curve] in experiment [6] (measured here: PEO4 viability); 14.8 µM [falling, partial curve] in experiment [7] (setting [12]); 23.5 µM [falling, partial curve] in experiment [7] (setting [14]). Besides, the z-score in experiment [7] (setting [10]) was -0.222; in experiment [7] (setting [11]), -0.442; in experiment [7] (setting [13]), 0.209.
`COc1cc2ncnc(Nc3ccc(F)c(Cl)c3)c2cc1NC(=O)/C=C/CN1CCCCC1`: the IC50 in experiment [1] is 21.5 µM [falling, partial curve]; in experiment [2] it was 17.1 µM [falling, partial curve]; in experiment [3], 24.1 µM [falling, partial curve]; in experiment [4], 24.1 µM [falling, partial curve]. Further, the AC50 is 4.36 µM [falling, partial curve] in experiment [6] (setting [9]) and 4.9 µM [falling, full curve] in experiment [6] (measured here: PEO4 viability).
Regarding `CCc1nc(C(N)=O)c(Nc2ccc(N3CCC(N4CCN(C)CC4)CC3)c(OC)c2)nc1NC1CCOCC1`, the IC50 in experiment [1] was 14.9 µM [falling, partial curve]; in experiment [2], 16.8 µM [falling, partial curve]; in experiment [4], 11.9 µM [falling, partial curve]. The AC50 in experiment [6] (measured here: PEO4 viability) was 27.5 µM [falling, partial curve, poor fit].
For the compound `O=C(NCc1ccc2c(c1)OCO2)c1sc(=S)n2c1[nH]c(=O)c1ccccc12`, the IC50 in experiment [1] was 27.1 µM [falling, partial curve]; in experiment [2], 34.1 µM [falling, single point]; in experiment [4] it was 27.1 µM [falling, partial curve].
With `c1ccc(-c2oc3ncnc(NC[C@@H]4CCCO4)c3c2-c2ccccc2)cc1`, the IC50 in experiment [1] was 24.1 µM [falling, partial curve]; in experiment [2], 24.1 µM [falling, partial curve]; in experiment [3], 24.1 µM [falling, partial curve]; in experiment [4], 24.1 µM [falling, partial curve]. Further, the z-score was -0.101 in experiment [7] (setting [10]), 0.179 in experiment [7] (setting [11]) and 0.334 in experiment [7] (setting [13]). Also, the AC50 was 23.5 µM [falling, single point] in experiment [7] (setting [12]) and 20.9 µM [falling, partial curve] in experiment [7] (setting [14]).
For the compound `COc1cc2ncnc(Nc3ccc(F)c(Cl)c3)c2cc1OCCCN1CCOCC1`, the IC50 in experiment [1] is 21.5 µM [falling, partial curve]; in experiment [2], 19.2 µM [falling, partial curve]; in experiment [3] it was 27.1 µM [falling, partial curve]; in experiment [4], 21.5 µM [falling, partial curve]. The z-score in experiment [7] (setting [10]) is -3.16; in experiment [7] (setting [11]) it was -0.781; in experiment [7] (setting [13]) it was -0.973. The AC50 in experiment [7] (setting [12]) is 27 µM [falling, partial curve]; in experiment [7] (setting [14]) it was 6.79 µM [falling, full curve].
With `CC1CC(=O)C2=C(O1)OC1(C)CCC3C(C)(C)C=CC(=O)C3(C)C1C2` (centres undefined), the IC50 in experiment [1] is 14.9 µM [falling, partial curve]; in experiment [3] it was 0.0942 µM [falling, full curve].
Regarding `CCCCCNC(=O)c1sc(=S)n2c1[nH]c(=O)c1ccc(C(=O)OC)cc12`, the IC50 in experiment [1] is 27.1 µM [falling, partial curve]; in experiment [3], 24.1 µM [falling, partial curve].
